For 60 compounds, relative growth results are on record in the supplement of paper PMC9446081.

Out of some 39,000 compounds screened, about 220 (0.56%) showed activity. The list shows a part of the results.
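Note: static incubation at 37 °C against the wild-type strain, values averaged over two biological replicates.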

This test concerns Escherichia coli K-12 BW25113. In words: relative growth (OD600 normalised to plate interquartile mean) (fraction); higher = less growth inhibition, active = 0.2 or less. As to conditions: 50 µM; LB; incubation time: overnight (16-24 h).
On to `C[C@@H]1CN([C@H](C)CO)C(=O)c2cc(NC(=O)c3ccncc3)ccc2O[C@@H]1CN(C)Cc1ccc(-c2ccccc2)cc1`, for which the relative growth is inactive: 1.

Regarding `C[C@H]1CN([C@@H](C)CO)C(=O)c2cc(NS(=O)(=O)c3ccc(F)cc3)ccc2O[C@H]1CN(C)CC1CC1`, the relative growth was inactive: 1.

For `CC(NCCc1ccc(O)cc1)C(O)c1ccc(O)cc1.Cl` (stereo not given), the relative growth was inactive: 1.06.

Regarding `C[C@H]1CN([C@@H](C)CO)C(=O)c2cccc(NS(=O)(=O)c3cccs3)c2O[C@H]1CN(C)CC1CC1`, the relative growth was inactive: 1.01.

For the compound `CN1CCN(C2=Nc3ccccc3Oc3ccc(Cl)cc32)CC1.O=C(O)CCC(=O)O`, the relative growth was inactive: 1.08.

For the compound `C[C@H]1CN([C@@H](C)CO)S(=O)(=O)c2ccc(-c3cncnc3)cc2O[C@@H]1CN(C)C(=O)Cc1ccccc1`, the relative growth is inactive: 1.03. On to `COc1ccc(NC(=O)N(C)C[C@H]2OCCCC[C@@H](C)Oc3ccc(NS(=O)(=O)c4cccs4)cc3C(=O)N([C@H](C)CO)C[C@H]2C)cc1`, for which the relative growth is inactive: 1.05. Take `C[C@H]1CN([C@@H](C)CO)S(=O)(=O)c2ccc(C#CC3(O)CCCC3)cc2O[C@@H]1CN(C)C(=O)Cc1ccncc1`: the relative growth is inactive: 1.02. Next, `C[C@@H]1CN([C@H](C)CO)C(=O)c2ccccc2-c2ccccc2CO[C@@H]1CN(C)C(=O)Nc1ccc(F)cc1`: inactive: 0.995; `C[C@@H](NC(=O)C[C@@H]1CC[C@@H](NC(=O)CN2CCOCC2)[C@@H](CO)O1)c1ccccc1`: inactive: 0.988. On to `CC(C)N1C(=O)[C@@H]2[C@@H](C1=O)[C@@H]1C=C[C@@H]2O1`, for which the relative growth is inactive: 0.99. As for `C[C@H]1CCCCO[C@@H](CN(C)C(=O)Nc2cccc3ccccc23)[C@@H](C)CN([C@@H](C)CO)C(=O)c2cc(NS(=O)(=O)c3ccccc3)ccc2O1`, the relative growth is inactive: 1.03.

Turning to `CC1OC1P(=O)([O-])[O-].[Ca+2]` (stereo not given), the relative growth is inactive: 1.08.

As for `C[C@@H]1CN([C@H](C)CO)S(=O)(=O)c2ccc(C#CC3CC3)cc2O[C@@H]1CN(C)Cc1cccc(F)c1`, the relative growth is inactive: 1.03. With `CC(C)C[C@@H]1NC(=O)[C@@]23C(=O)N[C@@H](Cc4ccccc4)[C@H]2[C@H](C)[C@@]2(C)O[C@H]2[C@@H]3/C=C/C/C=C\CNC(=O)[C@@H](C)NC1=O`, the relative growth was inactive: 1.01. Next, `COC(=O)[C@@H](C)n1nc(-c2ccccc2)c2ccccc21.COC(=O)[C@H](C)n1nc(-c2ccccc2)c2ccccc21`: inactive: 1.01; `COCCOC(=O)N1C(=O)[C@@]2(c3cc(C#Cc4ccc(OC)cc4)ccc31)[C@H](c1ccccc1OCCO)N1[C@H](c3ccccc3)[C@H](c3ccccc3)OC(=O)[C@H]1[C@@H]2C(=O)N1CCc2cc(OC)c(OC)cc2C1`: inactive: 1.08; `C[C@@H]1CCCCO[C@H](CN(C)C(=O)Cc2ccccc2)[C@@H](C)CN([C@@H](C)CO)C(=O)c2cc(NC(=O)c3ccccc3)ccc2O1`: inactive: 1.01.

On to `C[C@H](CO)N1C[C@H](C)[C@@H](CN(C)S(=O)(=O)c2cn(C)cn2)Oc2cc(C3=CCCC3)ccc2S1(=O)=O`, for which the relative growth is inactive: 1.01. The value for `C[C@@H]1CN([C@H](C)CO)C(=O)c2cc(NC(=O)Cc3ccccc3)ccc2O[C@@H](C)CCCCO[C@H]1CN(C)Cc1ccncc1` was inactive: 1; that for `C=C(C)CC1(N[C@H](C)c2ccccc2)CCCCC1` was inactive: 1.01; that for `C[C@@H]1CN([C@@H](C)CO)S(=O)(=O)c2ccc(C#CC(C)(C)O)cc2O[C@H]1CN(C)Cc1ccc(F)cc1` was inactive: 1.01. Next, `C[C@H]1CN([C@@H](C)CO)C(=O)c2cc(NS(=O)(=O)c3ccc(Cl)cc3)ccc2O[C@@H]1CN(C)Cc1ccc(Cl)c(Cl)c1`: inactive: 1.02; `CC(C)CC#Cc1ccc2c(c1)O[C@@H](CN(C)S(=O)(=O)c1cccc(F)c1)[C@@H](C)CN([C@@H](C)CO)S2(=O)=O`: inactive: 1.02; `CCC(=O)NCCN1CCN(C(=O)CC)CC1`: inactive: 1.05. Take `C[C@@H]1CN([C@@H](C)CO)C(=O)c2c(c3ccccc3n2C)-c2ccccc2CO[C@H]1CN(C)C(=O)Nc1ccc(F)cc1`: the relative growth was inactive: 1.02. With `Cc1ccc(S(=O)(=O)N(C)C[C@@H]2OCCCC[C@H](C)Oc3ccc(NS(=O)(=O)c4ccc(F)cc4)cc3C(=O)N([C@H](C)CO)C[C@@H]2C)cc1`, the relative growth was inactive: 1.

In the case of `O=C(COc1ccccc1)Nc1nnc[nH]1`, the relative growth is inactive: 0.94. Next, `CC(C)(C)[S@](=O)N1Cc2cc(C(=O)N3CCCCC3)nc(-c3cccc(-c4cccc(C#N)c4)c3)c2[C@@H]1CCO`: inactive: 0.993. As to `C[C@@H]1CN([C@@H](C)CO)C(=O)c2cc(NC(=O)NC3CCCCC3)ccc2O[C@H]1CN(C)Cc1ccc(Oc2ccccc2)cc1`, the relative growth is inactive: 1.02. Take `C[C@H](CO)N1C[C@H](C)[C@H](CN(C)CC2CC2)Oc2ccc(NS(=O)(=O)c3ccccc3)cc2C1=O`: the relative growth was inactive: 1.02. In the case of `COc1ccc(NC(=O)Nc2ccc3c(c2)[C@@H]2C[C@@H](CC(=O)N4CCN(C)CC4)O[C@H](CO)[C@@H]2O3)cc1`, the relative growth is inactive: 1.02. As for `C[C@@H]1CN([C@H](C)CO)S(=O)(=O)c2ccc(Br)cc2O[C@@H]1CN(C)S(=O)(=O)c1ccccc1`, the relative growth is inactive: 1.

On to `C[C@H]1CN([C@@H](C)CO)C(=O)c2cccc(NC(=O)c3ccncc3)c2O[C@H]1CN(C)S(=O)(=O)c1cccs1`, for which the relative growth is inactive: 1. Consider `COc1ccc2c3c([nH]c2c1)[C@@H](CO)N(C[C@]13CCN(CC1)S(=O)(=O)c1cn(cn1)C)C(=O)Nc1ccc(cc1)F`, for which the relative growth is inactive: 0.975. As for `COc1ccc2c3c(n(c2c1)C)[C@H](CO)N(CC1CCCCC1)C[C@]13CCN(CC1)Cc1nccs1`, the relative growth is inactive: 1.01. Turning to `C[C@@H]1CCCCO[C@H](CN(C)S(=O)(=O)c2ccc(F)cc2)[C@H](C)CN([C@@H](C)CO)C(=O)c2cc(NC(=O)Cc3ccccc3)ccc2O1`, the relative growth was inactive: 0.99.

With `C[C@@H]1CCCCO[C@@H](CN(C)C(=O)NC2CCCCC2)[C@@H](C)CN([C@@H](C)CO)C(=O)c2cc(NC(=O)c3ccccc3)ccc2O1`, the relative growth is inactive: 1.01. The value for `COc1ccc([C@H]([C@H](Cc2ccccc2)OC(C)=O)N(C[C@H](/C=C/c2ccccc2)OC(C)=O)[C@@H](Cc2ccccc2)C(OC)OC)cc1` was inactive: 1.04; that for `CO[C@@H]1CN(C)C(=O)c2cc(NC(=O)Nc3cccc(F)c3)ccc2OC[C@@H](C)N(C(=O)Nc2cccc(F)c2)C[C@H]1C` was inactive: 1.03; that for `C[C@H]1CN([C@@H](C)CO)C(=O)c2cccc(NS(=O)(=O)c3cn(C)cn3)c2O[C@@H]1CN(C)Cc1ccccc1` was inactive: 0.933. Take `Cc1ccc(S(=O)(=O)N(C)C[C@@H]2Oc3ccc(NC(=O)NC(C)C)cc3C(=O)N([C@H](C)CO)C[C@H]2C)cc1`: the relative growth is inactive: 0.986. The value for `O=C(CCCCCNC(=O)OC[C@H]1C(=O)O[C@@H](Cc2ccccc2)[C@H]2[C@H]3C(=CC(=O)[C@@H]3C3CC3)CN21)NO` was inactive: 0.977. Next, `C[C@@H]1CCCCO[C@@H](CN(C)S(=O)(=O)c2cccs2)[C@H](C)CN([C@H](C)CO)C(=O)c2cc(NC(=O)c3ccccc3)ccc2O1`: inactive: 1.01. Consider `NC(=O)NCC#Cc1ccc2c(c1)[C@]1(C(=O)N2)[C@H](c2ccccc2OCCO)N2[C@H](c3ccccc3)[C@H](c3ccccc3)OC(=O)[C@H]2[C@@H]1C(=O)N1CCN(c2ncccn2)CC1`, for which the relative growth was inactive: 1.03.

With `CC(C)N1CC=C[C@@]23O[C@@H]4C=CCCOC(=O)[C@@H]4[C@H]2C(=O)N(CCCO)[C@@H]3C1=O`, the relative growth was inactive: 1. Take `CC(C)[Si]1(C(C)C)OCc2cc(-c3ccc(-c4ccc(Cl)c(Cl)c4)o3)nc(CCc3ccccc3)c21`: the relative growth was inactive: 0.95. Take `C[C@H](CO)N1C[C@H](C)[C@@H](CN(C)C(=O)c2ccncc2)Oc2ncc(-c3ccc(C(=O)N(C)C)cc3)cc2C1=O`: the relative growth was inactive: 1.02. The value for `CC1(C)C(=O)NCCN1C(=O)Cc1ccccc1` was inactive: 1; that for `C[C@H](CO)N1C[C@H](C)[C@H](CN(C)C(=O)CCC(F)(F)F)OCCCC[C@H](C)Oc2ccc(NC(=O)c3ccccc3)cc2C1=O` was inactive: 1.04; that for `CC(C)C#Cc1ccc2c(c1)O[C@@H](CN(C)C(=O)c1cnccn1)[C@H](C)CN([C@@H](C)CO)S2(=O)=O` was inactive: 0.993. Next, `CC(C)NC(=O)N1Cc2cc(C(=O)NCC(F)(F)F)nc(-c3cccc(-c4cc5ccccc5o4)c3)c2[C@H]1CCO`: inactive: 1.09; `COc1ccc(S(=O)(=O)Nc2ccc3c(c2)CC(=O)N([C@@H](C)CO)C[C@H](C)[C@@H](CN(C)S(=O)(=O)c2ccc(F)cc2)O3)cc1`: inactive: 1; `Cc1cc(C(=O)Nc2cccc3c2O[C@@H](CN(C)S(C)(=O)=O)[C@@H](C)CN([C@H](C)CO)C3=O)n(C)n1`: inactive: 1.

With `C[C@@H]1CN([C@H](C)CO)C(=O)c2cc(NC(=O)Nc3ccc(F)cc3)ccc2O[C@@H]1CN(C)C(=O)Nc1cccc2ccccc12`, the relative growth was inactive: 0.98.

Consider `COc1cccc(S(=O)(=O)N(C)C[C@H]2OCc3cnnn3CCCC(=O)N([C@@H](C)CO)C[C@@H]2C)c1`, for which the relative growth is inactive: 1. As for `CS(=O)(=O)N1C[C@@H]2COC[C@@]2(CN2CCOCC2)C1`, the relative growth was inactive: 0.99. Take `N[C@H](CCC(=O)O)C(=O)O`: the relative growth was inactive: 1.03. The value for `COc1ccc(C#Cc2cccc(-c3nc(C(=O)N[C@@H]4CCN(Cc5ccccc5)C4)cc4c3[C@@H](CCO)N(S(=O)C(C)(C)C)C4)c2)cc1OC` (stereo not given in full) was inactive: 1.01. `Cc1ccc(S(=O)(=O)N(C)C[C@H]2Oc3cc(C#Cc4ccccc4)ccc3S(=O)(=O)N([C@H](C)CO)C[C@H]2C)cc1`: the relative growth was inactive: 1.05.
